85 compounds from ChEMBL document CHEMBL4888484, “Replenishing the malaria drug discovery pipeline: Screening and hit evaluation of the MMV Hit Generation Library 1 (HGL1) against asexual blood stage Plasmodium falciparum ,using a nano luciferase reporter read-out” (2022) can be followed below.

Molecules are shown by their SMILES. Several values for one entry are separate records, joined by “and”; a condition that tells them apart may be missing. Equal values may be shown once. The campaign covered roughly 150,000 compounds. About 540 (0.36%) showed an effect of 50% or more. The list shows a part of the results.

This assay relates to Plasmodium falciparum. Nature of the assay: Primary screen in NF54 nanoGlo assay, in single point, at 2uM, 72h; a lower Z score goes with more inhibition. The format is functional, Erythrocyte. Particulars: timepoint 72 hour.

With `O=C(O)[C@H]1C[C@@H](C(=O)NCc2cccnc2)CN(C/C=C/c2ccccc2)C1`, the % Inhibition (as a rule, the relative decrease from the control value, in per cent) is listed as -9% and the Z score is reported as 1.73.

As for `O=S(=O)(N[C@@H](CO)c1ccc(F)cc1)N1CCCC1`, the “% Inhibition” value turned out to be 10% and the Z score was -1.32. In the same order, the values of `CCOc1ccc(C(=O)N2CCC[C@@]3(CNC(=O)O3)C2)o1` are 7% and -0.92.

`O=C([C@H]1CCOC1)N1CCN(Cc2nnc3n2CCCCC3)CC1`: the “% Inhibition” value came to 28% and the Z score is listed as -3.81. In the same order, the values of `Cc1c2c(nn1Cc1ccccc1)NC(=O)C[C@H]2/C=C/c1ccco1` are -7% and 1.19. For the compound `Cc1cc(Cl)cc2c(=O)n(CC[C@H]3CCCN3C)cnc12`, the “% Inhibition” value is 0% and the Z score is -0.07. For `COc1cccc([C@H]2C[C@@H]2C(=O)NC(C)c2cn[nH]c2)c1` (some centres undefined), in that order: -2% and 0.22.

Consider `Cn1ccc(CN2CCc3ccccc32)cc1=O`, for which the “% Inhibition” value turned out to be 6% and the Z score is recorded as -0.67. On to `CN(CC1CCCCC1O)c1ncc(Br)cn1` (centres undefined), for which the “% Inhibition” value is -6% and the Z score came out at 1.02.

`COCCN(Cc1ccc2c(ccn2C)c1)CC1CC1`: the “% Inhibition” value came to 13% and the Z score is recorded as -1.72.

In the case of `CCCCc1nc(C)sc1C(=O)NC1CCN(C(=O)c2cc3ccccc3[nH]2)CC1`, the “% Inhibition” value is given as -10% and the Z score is on record as 1.18. In the same order, the values of `CCOCC(C)(C)NC(=O)N[C@@H](CO)c1ccccc1` are 3% and -0.48. Take `COc1ccc(S(=O)(=O)N2CCC[C@H]2c2noc(COc3ccc(C)cc3)n2)cc1`: the “% Inhibition” value is 5% and the Z score is given as -0.7.

As to `CC1CC1NC(=O)CC1CCCCC(=O)N1` (centres undefined), the “% Inhibition” value is reported as -11% and the Z score was 2.27. Regarding `Cn1cc(C(=O)N2CC[C@](C)(C(=O)O)C2)c2ccccc21`, the “% Inhibition” value is -6% and the Z score is given as 0.52. In the same order, the values of `N#Cc1nn(Cc2csc(COc3ccc(Cl)cc3)n2)c2ccccc12` are -4% and 0.46. Turning to `O=C1C2CCCCC2C(=O)N1c1ccn(Cc2cccc(F)c2)n1` (centres undefined), the “% Inhibition” value amounted to 1% and the Z score is -0.14. In the same order, the values of `O=C(c1coc(CN2CCN(Cc3ccc(F)c(F)c3)CC2)n1)N1CCN(c2ccccc2)CC1` are -10% and 1.19. As for `CCNC(=O)NC1CN(CCc2scnc2C)C[C@@H]1OC` (some centres undefined), the “% Inhibition” value was -8% and the Z score is listed as 0.66. As for `CCOc1cccc(CN(C(=O)OC(C)(C)C)C2CCC(C(=O)N3CCO[C@@H](COCc4ccccc4F)C3)CC2)c1` (some centres undefined), the “% Inhibition” value amounted to 1% and the Z score is -0.14. Take `OC1(Cc2nc(Cc3cc(Br)ccc3F)no2)CCC1`: the “% Inhibition” value is -1% and the Z score is 0.11. In the same order, the values of `O=C(c1ncccc1Br)N1CCOC2CCCCC21` (centres undefined) are 2% and -0.27. As for `Cc1c[nH]c(C(=O)N2C[C@@H](CN3C[C@@H](C)O[C@@H](C)C3)[C@@H](CO)C2)c1`, the “% Inhibition” value was -9% and the Z score worked out at 1.62. For `CC[C@H]1c2ccccc2CN1C(=O)Cn1ccc(=O)[nH]c1=O`, in that order: -10% and 1.36. For the compound `O=C(c1cccc(F)c1F)N1CCc2[nH]c(-c3ccc(F)cc3F)nc2C1`, the “% Inhibition” value is -7% and the Z score is recorded as 1.31.

Take `CNC(=O)CCN(C)C(=O)c1coc(-c2ccnc(C)c2)n1`: the “% Inhibition” value is on record as -14% and the Z score was 2.45.

For `Cc1ccc2c(Nc3ccc(Br)cc3)c(C(=O)N3CCC(C)CC3)cnc2n1`, the “% Inhibition” value is reported as -4% and the Z score is listed as 0.55. For `CCC(C)NC(=O)C(NC(=O)c1cccc(OC)c1)C1CCN(S(=O)(=O)c2ccc(C)cc2)CC1` (centres undefined), in that order: 2% and -0.47. In the same order, the values of `Cc1cc([C@@H](C#N)c2ccc(Cl)cc2)c(Cl)cc1NC(=O)c1ccccc1` are -5% and 0.99.

Take `COc1ccnc(N[C@H]2CCCCN(C(=O)C3CCCC3)C2)n1`: the “% Inhibition” value is -11% and the Z score was found to be 1.4. In the same order, the values of `Cc1nn2c(NC(=O)[C@]3(C)CCCO3)csc2nc1=O` are -9% and 1.77. In the same order, the values of `C[C@H](NCCn1cccn1)C(=O)N1CCCCC1` are 3% and -0.33. With `CN(C(=O)CN1CCC[C@H]1c1nnc2ccccn12)c1ccccc1`, the “% Inhibition” value came out at 1% and the Z score is listed as -0.16. For `C=CC[C@]1(C(=O)O)CCCN(Cc2c(C)nn(CC)c2C)C1`, in that order: -6% and 1. For `COc1ccccc1NC(=O)CC(F)(F)F`, the “% Inhibition” value is on record as -6% and the Z score was 0.85. For `CCc1nc([C@H](C)NC(=O)Nc2ncnn2C)cs1`, in that order: 7% and -1.01.

Take `O=C(NS(=O)(=O)Cc1cccc2ncccc12)[C@H]1CC[C@H](c2ccccc2)C1`: the “% Inhibition” value was determined as 2% and the Z score is listed as -0.21. In the same order, the values of `Fc1cc(-c2ccco2)ccc1NC1CCOCC1` are 4% and -0.65. For `Cc1ccc(C(=O)N(C)c2ccc3c(c2)CCO3)cc1N`, in that order: -7% and 0.98. In the same order, the values of `O=C(O)CCC(=O)NC1=NN2C(=NC(c3ccccc3)=C[C@H]2c2ccc(Cl)cc2)N1` are -39% and 4.56.

In the case of `CC[C@@H](CO)N(Cc1ccsc1)Cc1cc(C(C)(C)C)[nH]n1`, the “% Inhibition” value is 3% and the Z score was -0.39. In the same order, the values of `CN(C)c1ccc(CNC(=O)c2cccc(-n3cnnn3)c2)cc1F` are -3% and 0.59. In the same order, the values of `COc1ccccc1/C=C/CN1C[C@H]2CC[C@@H](C1)NC2` are -1% and 0.1. In the same order, the values of `CN=C(NOCc1ccccc1)c1nonc1N` are -8% and 1.44. On to `Cn1ncnc1NC(=O)c1c(O)cccc1F`, for which the “% Inhibition” value is -9% and the Z score came out at 1.63. For `Cc1cccc(NC(=O)C(C)N2CCC3OCCCC3C2)c1C` (centres undefined), in that order: -12% and 1.27. With `CCOC1CC(NC(=O)N2CCC3(CCOC3)C2)C12CCC2` (centres undefined), the “% Inhibition” value is listed as -6% and the Z score is 0.95. In the same order, the values of `COC(=O)N1CC(NC(=O)N(C)c2ccc(F)cc2)C1` are -12% and 1.53. For `Cc1noc([C@H](C)NC(=O)c2cccn2C2CC2)n1`, in that order: -9% and 1.12. In the same order, the values of `C[C@H](NS(=O)(=O)c1ccc2c(c1)OCCCO2)C(=O)NC1CCCCCC1` are -6% and 0.83. Consider `Cc1ccccc1S(=O)(=O)N(CCC(=O)N1CCNCC1)CCC(C)C`, for which the “% Inhibition” value worked out at 0% and the Z score is reported as -0.08. In the same order, the values of `O=C(CCc1c[nH]c2ccccc12)N1CCC[C@H]1c1nnc2ccccn12` are -6% and 1.06. For `Cc1cc(C)n2ncc(CN3CC[C@H](c4sccc4C)[C@@H](O)C3)c2n1`, in that order: -1% and 0.17.

Regarding `Cc1cc(C(=O)NC[C@@](C)(O)Cc2ccco2)c(C)o1`, the “% Inhibition” value is -2% and the Z score is listed as 0.22. For `Cc1cccc(-c2nc3cc4sc(-c5cccc(C)c5)nc4cc3s2)c1`, the “% Inhibition” value is on record as -3% and the Z score came to 0.36.

As for `Cc1nc(CNC(=O)C(=O)Nc2ccc3[nH]ncc3c2)cs1`, the “% Inhibition” value was -11% and the Z score worked out at 1.72. For `c1cc(C2CN(c3cc(N4CCOCC4)ncn3)C2)ccn1`, in that order: -8% and 1.02. Consider `Cc1cccc(Oc2c(CCC(=O)NCc3cccnc3)c(C)nn2-c2ccccc2C)c1`, for which the “% Inhibition” value was -15% and the Z score came out at 2.91. In the same order, the values of `Cc1nn(C)c2nc(-c3ccncc3)nc(N3CCC[C@H](C(N)=O)C3)c12` are -10% and 1.73. In the same order, the values of `Cc1cccc(C)c1NCC(=O)N1CCC(C(=O)NC2CC2)CC1` are 6% and -0.78.

With `O=C(OCC(=O)N1CCCCCC1)c1cnn(-c2ccncc2)c1C(F)F`, the “% Inhibition” value is given as -10% and the Z score is given as 1.86. For `Cc1cnc(CN2CCO[C@H](c3nc(C(C)C)n[nH]3)C2)o1`, in that order: -1% and 0.05. For `COc1cnc(C2(NC(=O)CC[C@H]3CCCO3)CCCC2)[nH]c1=O`, in that order: -8% and 0.86.

Turning to `COC(=O)C[C@H](NC(=O)Cc1cccc(C)c1)C1CC1`, the “% Inhibition” value is listed as -10% and the Z score is 1.97. In the same order, the values of `c1ccc(-c2nnn[nH]2)c(NCc2ccc3c(c2)OCO3)c1` are -10% and 1.2. In the case of `O=C(Nc1n[nH]c(Cc2cccc(F)c2)n1)[C@@H]1CCCO1`, the “% Inhibition” value was -10% and the Z score came out at 1.03.

As for `O=S(=O)(Nc1ccccc1)c1ccc(-c2nnc(C3CCC3)o2)s1`, the “% Inhibition” value worked out at 6% and the Z score is reported as -1.18. In the same order, the values of `O=C(O)c1cnc(N2CCC[C@H]2c2ncc[nH]2)c(Cl)c1` are -10% and 1.27. For `NC(=O)c1ncc(NC(=O)[C@H]2CC2(Cl)Cl)s1`, in that order: -15% and 2.38. In the same order, the values of `CN(Cc1ccco1)C(=O)c1ccc2nccnc2c1` are -6% and 0.7. In the case of `Cc1ccc(S(=O)(=O)N2CCN(C(=O)c3cscn3)[C@@H](C)C2)o1`, the “% Inhibition” value is -9% and the Z score is listed as 1.2. In the same order, the values of `Cc1ccc(S(=O)(=O)Nc2ccc3c(c2)COC3=O)c(C)c1` are -6% and 0.9. As to `COC(=O)N1CCN(C(=O)CCc2scnc2C)CC1`, the “% Inhibition” value is on record as -17% and the Z score was determined as 3.3. In the same order, the values of `FC(F)(c1nc(-c2cscn2)no1)C1CCOCC1` are -6% and 1.13. For `Cc1ccc(Cc2ccccc2C(=O)N(CCO)Cc2cccs2)cc1`, in that order: 13% and -2.8. For `Cc1cnc(C(=O)N2CC3(C[C@@H](c4nc(-c5cccnc5)no4)N(C)C3)C2)cn1`, in that order: 5% and -0.59.

For `CN(C)[C@@H]1C[C@@H](O)[C@H](CO)[C@H]1Cc1ccnc(-c2ccccc2F)n1`, the “% Inhibition” value is given as 4% and the Z score is reported as -0.52. Consider `CC(C)c1ccc(N2C(=O)N[C@@H](CC(=O)N3CCN(S(=O)(=O)C(C)C)CC3)C2=O)cc1`, for which, where the note is “2 µM”, the “% Inhibition” value was -2% and -6%. Take `COc1cc(CN2CC[C@@]3(CCCNC3)C2)ccc1F`: the “% Inhibition” value is listed as -18% and the Z score is on record as 2.28. In the same order, the values of `N#Cc1ccc(F)c(COC(=O)c2cc(S(=O)(=O)N3CCCC3)c[nH]2)c1` are -7% and 0.97. In the same order, the values of `N#CCN(C(=O)CCCc1c[nH]c2ccccc12)C1CC1` are -16% and 2.67. In the same order, the values of `C#CCN(C)S(=O)(=O)C1Cc2ccccc2C1` are -7% and 0.95. Take `CC12CCN(C(=O)Cc3ccnc(O)c3Br)CC1C2(F)F` (centres undefined): the “% Inhibition” value is recorded as -2% and the Z score is listed as 0.27.

Regarding `COc1ccc(CCN2C(=O)[C@H]3[C@@H](C2=O)[C@]2(C(=O)Nc4ccccc42)N2CCC[C@@H]32)cc1OC`, the “% Inhibition” value is on record as -9% and the Z score turned out to be 1.22. For `O=C1CC[C@H](C(=O)Nc2cnn(-c3cccc(C(F)(F)F)c3)c2)N1`, in that order: -8% and 1.06.
